Molecules are shown by their SMILES. Screen size: about 310,000 compounds; about 2,200 (0.71%) showed an effect of 50% or more. Effects have a minus sign here. This is one part of the list.

The target of this experiment is human ether-à-go-go-related gene (hERG) potassium channel (human, UniProt Q12809). Description: primary screen, population patch clamp on CHO cells stably expressing hERG.
Chain of human ether-à-go-go-related gene (hERG) potassium channel (Q12809 whole entry, looked up): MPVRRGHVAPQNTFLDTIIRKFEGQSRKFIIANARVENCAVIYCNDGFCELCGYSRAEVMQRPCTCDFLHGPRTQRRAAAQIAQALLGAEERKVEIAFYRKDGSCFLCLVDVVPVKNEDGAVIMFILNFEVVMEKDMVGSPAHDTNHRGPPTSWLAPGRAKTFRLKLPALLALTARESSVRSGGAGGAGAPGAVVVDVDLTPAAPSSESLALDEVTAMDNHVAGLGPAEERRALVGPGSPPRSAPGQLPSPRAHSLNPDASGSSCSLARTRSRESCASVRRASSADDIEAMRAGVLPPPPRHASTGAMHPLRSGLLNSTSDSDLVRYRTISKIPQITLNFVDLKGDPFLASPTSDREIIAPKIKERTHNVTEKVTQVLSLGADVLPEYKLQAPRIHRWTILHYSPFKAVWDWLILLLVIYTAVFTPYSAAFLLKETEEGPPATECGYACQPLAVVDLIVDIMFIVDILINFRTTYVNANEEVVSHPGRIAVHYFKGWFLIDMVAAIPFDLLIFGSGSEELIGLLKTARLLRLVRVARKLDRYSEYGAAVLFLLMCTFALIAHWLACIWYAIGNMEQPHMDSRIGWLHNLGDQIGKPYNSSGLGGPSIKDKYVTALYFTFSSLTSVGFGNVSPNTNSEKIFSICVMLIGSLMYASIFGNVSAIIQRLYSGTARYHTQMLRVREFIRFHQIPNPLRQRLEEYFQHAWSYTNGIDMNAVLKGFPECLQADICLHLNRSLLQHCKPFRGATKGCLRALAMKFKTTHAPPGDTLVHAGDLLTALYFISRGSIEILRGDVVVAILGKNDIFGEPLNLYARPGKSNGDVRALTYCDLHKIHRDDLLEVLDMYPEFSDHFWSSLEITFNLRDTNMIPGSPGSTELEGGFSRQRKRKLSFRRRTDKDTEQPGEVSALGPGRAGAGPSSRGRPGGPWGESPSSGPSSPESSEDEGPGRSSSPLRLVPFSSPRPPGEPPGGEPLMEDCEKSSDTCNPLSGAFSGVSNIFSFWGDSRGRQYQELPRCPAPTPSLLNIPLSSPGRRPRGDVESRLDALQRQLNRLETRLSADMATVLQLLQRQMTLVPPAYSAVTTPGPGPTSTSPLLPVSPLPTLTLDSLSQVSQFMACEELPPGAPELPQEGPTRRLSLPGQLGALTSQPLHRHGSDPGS
Take `O=C(CSc1nnc(Cc2cc(=O)[nH]c(=O)[nH]2)n1-c1ccc(Cl)cc1)NC1CCCC1`: the “hERG current change (%, negative = inhibition) at 1uM” value is 14%.
For `COC(=O)C1=C(C)NC2=C(C(=O)CC(C)(C)C2)C1c1cnn(C)c1C` (centres unmarked), the “hERG current change (%, negative = inhibition) at 1uM” value turned out to be 17%.
As for `O=C(O)c1cc2c(s1)-c1ccccc1OC2`, the figure is 15.5%.
In the case of `O=C(CSc1nc2ccccc2c(=O)n1CC1CCCO1)N1CCN(c2ccccc2)CC1` (centres unmarked), the “hERG current change (%, negative = inhibition) at 1uM” value was -41.6%.
In the case of `O=C(Nc1ccc2c(c1)OCCO2)C1CCN(S(=O)(=O)c2ccc(Br)s2)CC1` it was 14.8%.
As for `COc1ccc(S(=O)(=O)NCc2c(-c3ccccc3)noc2C)c(OC)c1`, the figure is 3.4%; as for `Cl.OCCN(CCO)CC(O)CN1c2ccccc2Sc2ccccc21` (centres unmarked), 1.67%.
On to `COc1ccc(CC(=O)Nc2cc3oc4ccccc4c3cc2OC)cc1`, for which the “hERG current change (%, negative = inhibition) at 1uM” value is -4.28%.
Turning to `N#CC(=C=[N-])C1=C(C#N)C(c2ccccc2F)C([n+]2ccccc2)C(O)(C2CC2)N1` (centres unmarked), the “hERG current change (%, negative = inhibition) at 1uM” value is on record as 16.1%.
In the case of `O=S(=O)(CCN(CCS(=O)(=O)C(F)(F)F)CC1CCCO1)C(F)(F)F` (centres unmarked) it was -8.93%; in that of `O=C(c1cn(-c2ccc(Cl)c(Cl)c2)nn1)C1CC1`, 12.3%; in that of `O=C(CSc1ccccc1)NCCSCc1ccccc1`, 14.1%.
In the case of `Cc1ccc(NC(=O)/C(=C\c2ccc3c(c2)OCO3)NC(=O)c2ccco2)cc1` it was 8.58%; in that of `CCCC(C(=O)NC1CCCC1)N(CC1CCCO1)C(=O)c1snc(C(N)=O)c1N` (centres unmarked), -24.4%.
Regarding `O=C(CCNC(=O)c1ccc(Cl)cc1)NC1CCCc2ccccc21` (centres unmarked), the “hERG current change (%, negative = inhibition) at 1uM” value is on record as 8.63%.
Take `Cc1cccc(NC(=O)C(=O)NCCCN2CCOCC2)c1`: the “hERG current change (%, negative = inhibition) at 1uM” value is given as 9.45%.
As for `Cc1nc(N)nc(Nc2ccc(C#N)cc2)c1Br`, the figure is 8.67%; as for `CCOc1ccccc1NC(=O)CN1C(=O)NC(Cc2c[nH]c3ccccc23)C1=O` (centres unmarked), -2.29%; as for `C#CCOc1c(Cl)cc(/C=N/O)cc1OC`, 11.2%.
`COc1ccc(S(=O)(=O)c2c[nH]c(=S)[nH]c2=O)cc1Cl`: the “hERG current change (%, negative = inhibition) at 1uM” value was 16.4%.
As for `O=c1oc2ccccc2n1CCc1ccccc1`, the figure is -6.61%; as for `FCCCOc1ccc(-c2nccc(-c3ccccn3)n2)cc1`, 10.8%.
As for `COCCNC(=O)c1cc(Br)ccc1Cl`, the “hERG current change (%, negative = inhibition) at 1uM” value stood at 2.21%.
In the case of `Cc1sc2nc(C(C)Nc3ccccc3N3CCOCC3)[nH]c(=O)c2c1C` (centres unmarked) it was 18.4%.
Turning to `O=C(CCN1C(=O)/C(=C\c2cccc(Br)c2)SC1=S)N1CCOCC1`, the “hERG current change (%, negative = inhibition) at 1uM” value was determined as 8.21%.
In the case of `CCN(CC)S(=O)(=O)c1csc(C(=O)OCC(=O)c2ccccc2)c1`, the “hERG current change (%, negative = inhibition) at 1uM” value was 6.93%.
As to `Cc1cccnc1CCNC(=O)c1ccc(OC2CCN(Cc3ccccn3)CC2)cc1`, the “hERG current change (%, negative = inhibition) at 1uM” value is recorded as 2.16%.
In the case of `COc1ccc(-c2c(C#N)c(N)nc3c2CCc2ccccc2-3)cc1OC` it was 4.73%; in that of `CCOC(=O)c1csc(N)n1.Cl`, 7.65%; in that of `CCc1nc2ccccc2c(NC(=O)CN2CCC(C)CC2)c1C.O=C(O)C(=O)O`, -7.26%.
In the case of `COc1cc(C(=O)Oc2cc(N)n(S(=O)(=O)c3ccc(F)cc3)n2)cc(OC)c1OC` it was 14%; in that of `CN1CCN(c2ccc(NC(=O)c3ccc(-c4ccc(Br)cc4)o3)cc2)CC1`, 9.92%; in that of `CCOc1ccc(CNC(=O)CCn2c(=O)oc3ccccc32)cc1`, -15.9%.
For `O=C(Nc1ccc(S(=O)(=O)Nc2nccs2)cc1)c1cc(-c2ccccc2Cl)nc2ccccc12`, the “hERG current change (%, negative = inhibition) at 1uM” value stood at 8.31%.
As for `CCCCNC(=O)C1CCN(S(=O)(=O)c2cnc[nH]2)CC1`, the figure is 9.56%; as for `CCOc1[nH]c(/N=C/c2ccco2)c(C#N)c1C#N`, 8.12%; as for `CCOc1ccccc1NC(=O)CSc1nnnn1-c1ccc(C(=O)OC)cc1`, 2.85%.
In the case of `COc1ccc2c(c1)CCN1C2CCN2C(=O)CCC21` (centres unmarked) it was 11.1%; in that of `O=C(NCCC1=CCCCC1)c1cc(-c2ccccn2)nc2ccccc12`, 17%.
Take `Cc1ccc(N2CC(NS(=O)(=O)c3cccs3)CC2=O)cc1C` (centres unmarked): the “hERG current change (%, negative = inhibition) at 1uM” value was found to be 14.9%.
As for `CC(C)c1ccc(NC(=O)C2C3C=CC4(O3)C2C(=O)N(CCCN2CCCCC2)C4C(=O)NC2CCCCC2)cc1` (centres unmarked), the “hERG current change (%, negative = inhibition) at 1uM” value turned out to be 13.7%.
In the case of `Cc1ccc(/C=C/C(=O)NCc2cccs2)o1` it was 7.15%.
In the case of `COc1ccc(N=C(NN)c2ccc3ccccc3n2)cc1` it was 7.45%; in that of `COc1cccc(C(=O)NC(C)c2cccc3ccccc23)c1OC` (centres unmarked), 7.59%.

The record behind these values is paper PMC4336329 (PLoS ONE, 2015).
